Results reported in the supplement of paper PMC11417369.
± gives the standard deviation of the averaged measurements. The list shows a part of the results.

Tested on: PfAP2-G AP2 domain (GST-tagged)
Test: gcPBM binding intensity (ln(normalized median fluorescence intensity)); higher = stronger DNA binding
Procedure, shortened: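 Binding of GST-tagged P. falciparum DNA-binding domains, expressed in E. coli and used at about 25 μg on average, was carried out for 1 h in 1× PBS containing 1% milk, 0.2 mg/ml BSA, 0.5% salmon testes DNA and 0.03% Triton X-100. The target was an Agilent 4 × 180k array of primer-extended double-stranded 36-bp intergenic genomic probes plus negative controls, read with Alexa488 anti-GST antibody at 488 nm. Binding intensity is the highest Masliner-normalised natural-log median intensity across replicate spots of either probe orientation.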

Row | Sequence | gcPBM binding intensity (ln)
1 | TTTAAAAATTAATTCTGTACACATTTTTATTTTATT [XGTACX_site8] | 11.5 ± 0.8
2 | TTCTTTCTTCAAAAGTGTACCAAATGTTAGAAAGGT [XGTACX_site4353] | 11.2 ± 0.77
3 | ATATATATATATATGTGTACACAACAAAATAAAAAA [XGTACX_site7378] | 11.7 ± 0.79
4 | AACATATACCCAGGTACATGCAAATATATATATTAT [TGCATGCA_site878] | 10.8 ± 0.52
5 | TTTTCTTTTTTCTGTTGTACTAAAAATAATTTTGTA [XGTACX_site5171] | 11.3 ± 0.87
6 | TATTTATATATTATGTGTCCACATGTAAGCTATCTT [XGTACX_site3887] | 11.2 ± 0.71
7 | CCACTAATAAATATTACACACATATATATATATATT [CACACA_site3128] | 10 ± 0.16
8 | TATACATTATCTTATGCATGCGCATCTGCATATAAA [TGCATGCA_site266] | 9.96 ± 0.085
9 | TTTATTTATTATTAAAGTACTAAATCATATTATTAT [XGTACX_site992] | 10.8 ± 0.6
10 | CTCATCCTTACATACACACACATATATATATATATA [CACACA_site103] | 10.3 ± 0.41
11 | ATATTTAAATCGAAGGTGCGTATTTCCTTTTTTTTT [GTGCAC_site9632] | 10.2 ± 0.15
12 | ATTCATTTCTATTTTACACACAATAAGTAACTTAAT [CACACA_site2850] | 10.19 ± 0.099
13 | AGTATAAATAAATCATAAACATATATATATATATAT [GTGCAC_negctrl_site356] | 9.94 ± 0.39
14 | ATATATACATATAACACACACATATATATATATATA [CACACA_site2575] | 9.99 ± 0.23
15 | AATTGATTTATATATTGTACATATAAATTTATGTAT [XGTACX_site7785] | 11 ± 0.58
16 | ATTCACTAAAAAATTGCATGCAATAAATTTTTTTTT [TGCATGCA_site962] | 9.63 ± 0.17
17 | TTTTATTGTTGTTATACACACCATATAAAATATTTC [CACACA_site4983] | 10.2 ± 0.16
18 | TCTTGGTTATTAAAAAAAAAAAAATATATTTTTCCT [TGCATGCA_negctrl_site445] | 9.78 ± 0.028
19 | ATATTTATCTTTTTATGTACATATGCCCCTTTTCTG [XGTACX_site673] | 11.2 ± 0.66
20 | AAGAAAATTAAATTAACACACATAAATATATATATA [CACACA_site1664] | 9.85 ± 0.28
21 | GAGTTATTTCTTATTTAAGCATTCTACATATATATA [CACACA_negctrl_site239] | 9.97 ± 0.13
22 | ATTTTACATATTTGCACACATATATTTAAATACATA [CACACA_site4627] | 9.975 ± 0.035

Row | Sequence | gcPBM binding intensity (ln)
23 | CTCAACGATAGAGAAACATGCAAGTATAAGCAACTA [TGCATGCA_site771] | 9.845 ± 0.092
24 | GGGAAAATAAATAAAGTGCAGATATTAAAAGTTGTA | 10.16 ± 0.014
25 | TTGCATATTTCTAATTGTACATTATTTTATTTTATA [XGTACX_site8451] | 10.9 ± 0.54
26 | AATAAAAAATATATGAGTACTAAATTGTTTTCTTAA [XGTACX_site8573] | 11.2 ± 0.64
27 | TGTTAATTAAAGGACTGTACACTAATAATTCTATAA [XGTACX_site5195] | 11.5 ± 0.82
28 | GTTCTAATATATTGCACACGTAAAAATATAGGTAAT [CACACA_site886] | 10.3 ± 0.17
29 | AAATATGTACATATTATATATATATAATATATATTG [TGCATGCA_negctrl_site438] | 11.5 ± 1
30 | TCATATGTTTCATGTTGTACATTGAAAGTTTGGCTA [XGTACX_site3202] | 11 ± 0.6
31 | AAGAAAAAAATTTATACAAGAATTTTTTATTATTAA [TGCATGCA_negctrl_site587] | 9.65 ± 0.071
32 | AATAAATATAGATTCACACACAAACATATATAAATA [CACACA_site7814] | 9.935 ± 0.049
33 | AAAAAAAAAATATATATATATATATATATATAATTT [GTGCAC_negctrl_site32] | 9.32 ± 0.16
34 | ATAAATAAATGGTGTTGTACTCTATTATATATATAT [XGTACX_site7835] | 11.3 ± 0.75
35 | TAATTGTACGCCAATACACACAGAATTAGAATGTAG [CACACA_site102] | 11.8 ± 1.3
36 | TACACAAGCGGACACACACACATATATATATATATA [CACACA_site4832] | 11.3 ± 0.96
37 | AACATTCTAAAACACACACACACATATATATATATA [CACACA_site1052] | 10.1 ± 0.23
38 | TATATATAAAAAAGCACACATACATACATACATAAT [CACACA_site890] | 10.26 ± 0.099
39 | TTTTCACTTTTAAAAACATGCATACTTTATAAAATA [TGCATGCA_site967] | 10.1 ± 0.29
40 | TGTAAATTTGGCATCACACATAAATAAACATATAAA [CACACA_site4497] | 10.1 ± 0.057
41 | TATTAACATATATAAAGTACATTAAACAACATTGTA [XGTACX_site7667] | 11.1 ± 0.73
42 | AAAAAAAAAAAACACACACACACATAAATATATATA [CACACA_site149] | 9.85 ± 0.2
43 | GTGAAAAAAAACATATGTACTTATACACTAATCTAT [XGTACX_site7600] | 11.2 ± 0.75
44 | TTATATATAATTACATGTACGTAGTATTATTTAAAT [XGTACX_site3418] | 11.3 ± 0.93
